The values below come from article PMC4081100.

Only a part is listed here, and it is no random draw. For part of these data: At the low end of the ranking, values are background and their order means little. Some of the results follow. For part of these data: The source does not settle which construct or isoform was used.

Holding throughout (experiment): universal protein binding microarray (PBM)
Details in all cases: transcription factors of Arabidopsis thaliana; high values mean tight binding; most listed sequences are background and not binding sites; double strand, one strand shown

The target of assay [1] is GST-NTL6(1-168) (UniProt Q9SCK6).
The target in assay [2] is T1, GST-ANAC055(1-171) (UniProt Q9LDY8).
T1 sequence: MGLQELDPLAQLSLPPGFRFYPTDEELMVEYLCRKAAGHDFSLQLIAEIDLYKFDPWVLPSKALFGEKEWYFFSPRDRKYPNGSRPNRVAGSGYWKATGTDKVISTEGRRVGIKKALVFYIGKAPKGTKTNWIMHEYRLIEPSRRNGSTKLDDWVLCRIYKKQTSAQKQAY

In assay [3] the target is T2, GST-NAP(1-166) (UniProt O49255).
T2 sequence: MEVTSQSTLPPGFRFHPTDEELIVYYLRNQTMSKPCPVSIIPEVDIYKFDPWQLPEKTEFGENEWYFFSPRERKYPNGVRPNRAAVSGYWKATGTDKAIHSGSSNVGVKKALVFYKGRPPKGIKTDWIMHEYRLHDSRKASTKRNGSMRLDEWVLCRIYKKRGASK

Assay [4] deals with T3, GST-NTL8 NAC domain (UniProt Q9XIN7).
T3 sequence: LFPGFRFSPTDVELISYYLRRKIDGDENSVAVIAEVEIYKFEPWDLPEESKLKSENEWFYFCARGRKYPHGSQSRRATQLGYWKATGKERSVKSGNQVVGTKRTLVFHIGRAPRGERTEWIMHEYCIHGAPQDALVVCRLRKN

Assay [5] addresses T4, GST-VOZ2 (Arabidopsis thaliana) (UniProt Q9SLB9).
T4 sequence: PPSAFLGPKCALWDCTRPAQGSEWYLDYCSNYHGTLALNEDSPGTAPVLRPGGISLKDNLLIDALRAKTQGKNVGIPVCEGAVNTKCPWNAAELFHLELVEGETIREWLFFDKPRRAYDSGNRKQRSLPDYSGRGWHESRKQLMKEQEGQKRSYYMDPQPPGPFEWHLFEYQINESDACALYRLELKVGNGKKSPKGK

Assay [6] deals with GST-WRKY1(266-371) (UniProt Q9SI37).
The target in assay [7] is T5, GST-ANAC019 NAC domain (UniProt Q9C932).
T5 sequence: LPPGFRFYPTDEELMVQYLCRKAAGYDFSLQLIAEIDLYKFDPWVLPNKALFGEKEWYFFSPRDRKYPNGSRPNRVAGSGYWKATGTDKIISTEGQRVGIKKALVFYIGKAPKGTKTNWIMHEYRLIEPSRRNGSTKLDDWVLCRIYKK

The target in assay [8] is T6, GST-ATAF1 NAC domain (UniProt Q39013).
T6 sequence: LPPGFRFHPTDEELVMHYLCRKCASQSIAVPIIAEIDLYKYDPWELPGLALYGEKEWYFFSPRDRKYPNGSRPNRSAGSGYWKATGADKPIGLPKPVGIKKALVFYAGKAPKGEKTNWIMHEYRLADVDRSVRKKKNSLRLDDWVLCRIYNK

The target of assay [9] is T7, GST-ANAC092(1-285) full length (UniProt Q9FKA0).
T7 sequence: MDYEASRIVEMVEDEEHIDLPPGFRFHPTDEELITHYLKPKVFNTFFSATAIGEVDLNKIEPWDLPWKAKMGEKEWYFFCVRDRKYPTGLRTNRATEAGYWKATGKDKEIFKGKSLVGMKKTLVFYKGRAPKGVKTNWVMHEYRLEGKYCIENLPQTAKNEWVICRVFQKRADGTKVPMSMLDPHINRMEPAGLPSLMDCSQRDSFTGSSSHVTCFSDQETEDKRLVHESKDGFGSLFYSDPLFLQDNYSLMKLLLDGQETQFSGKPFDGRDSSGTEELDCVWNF

Assay [10] deals with T8, GST-NST2(1-184) (UniProt Q9M274).
T8 sequence: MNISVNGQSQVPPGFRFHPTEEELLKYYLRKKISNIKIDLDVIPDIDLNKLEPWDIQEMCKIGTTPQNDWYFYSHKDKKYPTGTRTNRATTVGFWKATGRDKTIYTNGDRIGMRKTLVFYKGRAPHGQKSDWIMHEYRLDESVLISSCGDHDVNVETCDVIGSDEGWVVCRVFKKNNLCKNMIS

For ATGGCGTG, the binding signal is -0.105 E-score in assay [1]; 0.138 E-score in assay [2]; 0.161 E-score in [3]; -0.0386 E-score in assay [4]; 0.0701 E-score in [5]; -0.154 E-score in [6].
For AAATTGAC, the binding signal was found to be 0.156 E-score in assay [1]; 0.134 E-score in assay [7]; 0.228 E-score in [8]; 0.136 E-score in [3]; 0.0641 E-score in assay [4]; 0.154 E-score in assay [5]. For the same sequence, in assay [6], the binding signal was found to be 0.45 E-score.
As for CACGCCAC, the binding signal in assay [1] is -0.0816 E-score; in [2], 0.268 E-score; in assay [9] it was 0.488 E-score; in assay [4], 0.00013 E-score; in assay [5], 0.152 E-score; in [6], 0.026 E-score.
For AGGGAAAA, the binding signal in assay [1] was 0.201 E-score; in [2], 0.111 E-score; in assay [8], 0.187 E-score; in [9], 0.0865 E-score; in assay [3], 0.117 E-score; in assay [10], -0.00265 E-score. The binding signal is 0.416 E-score in [4], 0.0746 E-score in assay [5] and -0.0385 E-score in assay [6].
As to ACGCAAGT, the binding signal came to 0.121 E-score in assay [1]; 0.277 E-score in assay [7]; 0.0671 E-score in assay [4]; 0.0846 E-score in [5]; 0.0386 E-score in assay [6].
As to ACGCAACG, the binding signal in assay [1] is -0.0424 E-score; in assay [8], 0.27 E-score; in [9], 0.463 E-score; in assay [10], 0.3 E-score; in assay [5], 0.137 E-score; in assay [6], 0.02 E-score.
On to AAGGAAAT, for which the binding signal in assay [1] amounted to 0.384 E-score; in assay [7] it was 0.147 E-score; in assay [9], 0.163 E-score; in [3] it was 0.06 E-score; in assay [4] it was 0.466 E-score; in assay [5] it was 0.11 E-score. Also, the binding signal in assay [6] is -0.0335 E-score.
Regarding ACACGCCA, the binding signal was -0.075 E-score in assay [1]; 0.227 E-score in [8]; 0.313 E-score in [10]; -0.0683 E-score in assay [4]; 0.0833 E-score in [5]; -0.143 E-score in assay [6].
For ACACGTAA, the binding signal was 0.0392 E-score in [1]; 0.439 E-score in [8]; 0.481 E-score in [9]; 0.316 E-score in [10]; 0.017 E-score in assay [4]; -0.00517 E-score in assay [5]. Also, in [6], the binding signal is -0.0409 E-score.
Regarding TACGTTAA, the binding signal in assay [7] is 0.0653 E-score; in assay [4], -0.201 E-score; in assay [5], 0.0234 E-score; in assay [6] it was -0.0754 E-score.
As for AATGCCGT, the binding signal in [7] was 0.428 E-score; in assay [2] it was 0.391 E-score; in assay [8], 0.342 E-score; in assay [4], -0.00491 E-score; in assay [5], -0.0168 E-score; in assay [6], -0.0386 E-score.
CTAGGAAA: the binding signal in assay [1] is 0.188 E-score; in assay [3], 0.0147 E-score; in assay [5] it was 0.0912 E-score; in assay [6], 0.0289 E-score.
AAGCGTGT: the binding signal is -0.0336 E-score in assay [1]; 0.133 E-score in [3]; -0.0697 E-score in [4]; 0.00139 E-score in assay [5]; 0.014 E-score in assay [6].
On to GTTAAGTA, for which the binding signal in assay [1] is 0.45 E-score; in [9], 0.123 E-score; in assay [3] it was 0.0291 E-score; in assay [4] it was 0.228 E-score; in assay [5], 0.186 E-score; in assay [6], -0.0287 E-score.
